According to PubChem BioAssay AID1963576 (National Center for Advancing Translational Sciences (NCATS), 2024):
The campaign covered roughly 46,000 compounds. About 60 (0.1%) were called active. Roughly 3% stayed inconclusive and do not appear here. Calls follow the shape of the dose curve; as a rule, active = well fitted inhibition curve with a large enough effect; inconclusive = small, poorly fitted or top-dose-only effect; inactive = no such curve, though single readings can be large or run the other way. Some of the results follow.

Assay: Primary qHTS assay for Inhibitors of ovarian cancer metastasis using an organotypic tumor microenvironment (TME) model. Also: nearly all actives have a fitted effect of over 65% in size.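 As to Potency: count of GFP cancer cells still attached after washing and fixation.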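 As to activity change, negative = inhibition: plate controls were DMSO wells for no effect and tomatine positive control wells for full effect.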
Settings: SKOV3ip1-GFP adhesion/invasion on 3D omental model, fluorescence; series mostly up to 45.8 µM; activity change, negative = inhibition: at the top concentration
How it was run: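 qHTS, 4-pt dose (0.36-46 umol/L); SKOV3ip1-GFP, 1,200 cells/well, no FBS; primary omental fibroblast/mesothelial co-culture 48 h pre-grown; 2 h RT + 16 h 37 C; PBS wash, 4% PFA; GFP count 488/509 nm.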
Potency is read from the fitted curve at half-maximal effect.

Activity change, negative = inhibition, inactive:
CSc1cccc(NC(=O)Cn2nnc(C(=O)NCCc3ccccc3)c2N)c1 6.64%
CCN1CCN(C(c2ccccc2)c2c(O)cc(C)n(CCOC)c2=O)CC1 (configuration not stated) 2.68%
Cc1cc(Cl)ccc1NC(=O)CN1C(=O)C(=O)c2ccccc21 -7.43%
COc1ccc(S(=O)(=O)Cc2ccc(C(=O)NC3CCCCC3)o2)cc1 1.57%
COC(=O)C1=C(c2ccccc2)c2ccccc2S(=O)(=O)N1CC(=O)Nc1ccccc1C(F)(F)F -6.15%
CCCCC(=O)Nc1ccc(C(=O)OCc2cc(=O)n3nc(C4CC4)sc3n2)cc1 -3.12%
CC(C)CC(=O)Nc1c(C(=O)N2CCN(c3ccccc3F)CC2)oc2ccccc12 -2.46%
CCN(CC)c1ccc(C(=O)NCc2ccc3c(c2)CCN3C(C)=O)cc1 -9.26%
Cc1cc(C)c2c(-n3cccc3)c(C(=O)NCCc3ccccc3)sc2n1 -8%
CC(C(=O)Nc1ccccc1C(F)(F)F)n1nc(-c2ccccc2)c2c(c1=O)CCCC2 (configuration not stated) 54.1%
CCOC(=O)C(Cc1c[nH]c2ccccc12)NC(=O)COc1ccc(Cl)cc1 (configuration not stated) -11.3%
Cc1c(Cl)cccc1NC(=O)CN1C(=O)CCn2nc(-c3cccn3C)cc21 6.91%
COCCN(CCOC)C(=O)c1cc2c(=O)n3ccccc3nc2n1C 0.0494%
Cc1ccc2c(=O)c(C(=O)c3ccccc3)cn(CC(=O)Nc3ccccc3)c2n1 18.2%
CC(C)Oc1ccc(CNC(=O)CCCn2c(=O)c3cccn3c3cccnc32)cc1 1.43%
O=C(NCc1ccc2c(c1)CCN2C(=O)c1ccncc1)c1ccc(Cl)cc1 -10.5%
COc1cccc(-c2nnc3n(Cc4ccccc4Cl)c(=O)c4ccccc4n23)c1O 5.38%
O=C(CSc1nc(-c2ccccc2)cn1-c1ccccc1)Nc1ccccc1 10.5%
Cc1cc(C)c(C(=O)Nc2ccccc2)c(SCC(=O)Nc2ccc(Br)cc2C)n1 3.39%
COc1ccc(-n2cc(C(=O)NCc3cccc(OC)c3)c3ccccc3c2=O)cc1 -4.91%
CCOc1cc(-c2nc(-c3ccc(-c4ccc(OC)cc4)nc3OC)no2)cc(OCC)c1OCC 1.93%
COc1ccccc1NC(=O)CCn1c(=O)oc2cc(Cl)ccc21 -9.12%
COc1ccc(Cl)cc1NC(=O)c1nn(C)c2c1CS(=O)(=O)c1ccccc1-2 1.63%
COc1ccc(-c2cc(C(=O)NCCc3ccccc3)c3cc(C(C)C)ccc3n2)cc1 5.15%
CC(=O)c1ccc(N2CCN(C3C(=O)c4ccccc4N3C(C)=O)CC2)cc1 (configuration not stated) 2.75%
NC(=O)c1cccc2cn(-c3ccc([C@@H]4CCCNC4)cc3)nc12 -9.25%
CCc1ccc(NC(=O)CSc2nc(=O)n(Cc3ccco3)c3c2CCC3)cc1 2.13%
Cc1nc2nc(NC(=O)c3ccc(Cl)cc3)[nH]n2c(=O)c1Cc1ccccc1 -6.23%
COc1ccc2nc(NC(=O)c3ccc(S(=O)(=O)N4CCCC(C)C4)cc3)sc2c1 (configuration not stated) 12.6%
O=C(CCc1ccc(O)cc1)c1c(O)cc(O)cc1O 6.15%
COc1cc2ncnc(Nc3ccc(F)c(Cl)c3)c2cc1NC(=O)C=CCN1CCCCC1 -1.3%
CC1=C(C(=O)Nc2ccccc2C)C(c2ccccn2)n2nc(SCc3ccccc3F)nc2N1 (configuration not stated) -6.91%
O=C(NC1CC(=O)N(c2ccc(Cl)cc2)C1)c1cccs1 (configuration not stated) 0.147%
CC(NC(=O)Cn1c(-c2cccs2)cc2cc(F)ccc21)c1ccccc1 (configuration not stated) 6.71%
Cc1ccc(S(=O)(=O)c2nnn3c2nc(N2CCN(c4ccccc4F)CC2)c2ccccc23)cc1C -25.1%
O=c1[nH]c(SCc2ccc(Br)cc2)nc2c1CCCC2 -0.832%
CCOC(=O)c1cc(-c2ccccc2)n(CCCC(=O)Nc2ccc(C)cc2C)c1C 2.83%
Cc1ccc(C(=O)NC2(C(F)(F)F)C(=O)Nc3c2c(=O)[nH]c(=O)n3CCc2ccccc2)cc1 (configuration not stated) 4.9%
O=C(Cn1c(=O)n(Cc2ccc3c(c2)OCO3)c(=O)c2ccc(C(=O)NC3CCCCC3)cc21)Nc1ccccc1F 4.19%
C[C@H]1O[C@@H](n2cc(F)c(=O)[nH]c2=O)[C@H](O)[C@H]1O -5.83%
Cc1cccn2c(=O)c3cc(C(=O)NCc4ccccc4Cl)sc3nc12 -0.614%
CC(C)(C)C(=O)N1CCN(c2nc3c(F)cccc3s2)CC1 -9.36%
Oc1cccc(Nc2ncnc3sc4c(c23)CCCC4)c1 3.7%
Cc1c(C(=O)N2CCC(C(=O)Nc3ccc(F)cc3)CC2)sc2nc[nH]c(=O)c12 0.493%
Cc1noc2ncnc(NCc3cccc(Cl)c3)c12 4.06%
Cc1cccc(-n2c3nc(=O)n(C)c(=O)c-3cc3ccc(Cl)cc32)c1C 26%
CN1CCN(CCCN2c3ccccc3Sc3ccc(C(F)(F)F)cc32)CC1 27.7%
COc1ccc(NC(=O)c2nnn(Cc3ccc(Br)cc3F)c2N)c(OC)c1 -4.62%
O=C(C1CCN(S(=O)(=O)c2cccc3nonc23)CC1)N1CCN(c2ccccc2)CC1 32.3%
CCOc1ccc(CNC(=O)c2ccc(CS(=O)c3ccccc3)o2)cc1 (configuration not stated) -0.203%
Cc1ccccc1NC(=O)Cn1nc(-c2ccc(F)cc2)c2cnc3ccccc3c21 0.987%
CC(=O)N1CCCc2ccc(NS(=O)(=O)c3ccc(F)cc3F)cc21 6.39%
Cc1ccc(N2CC(NC(=O)c3ccc4c(c3)OCO4)CC2=O)cc1 (configuration not stated) -3.98%
CS(=O)(=O)N1CCc2cc(C(=O)N3CCN(c4ccc(F)cc4)CC3)ccc21 -1.34%
CC(=O)N1CCc2c(sc3c2c(=O)n(-c2ccc(C)cc2)c(=O)n3CC(=O)Nc2ccccc2)C1 -13.8%
O=C(NCCc1ccc(Cl)cc1)c1ccc(CS(=O)(=O)Cc2ccccc2F)o1 -4.35%
Cn1c(Oc2ccc(F)cc2)nc2c1c(=O)n(Cc1ccccc1Cl)c(=O)n2C 3.69%
Cc1ccc2nc(NC(=O)c3cc(=O)c4cc(Cl)ccc4o3)sc2c1 0.678%
CSc1ccc(CNC(=O)c2cc3c(=O)n(Cc4ccco4)ccc3nc2C)cc1 -5.39%
CCc1ccccc1NC(=O)CSc1nnc(CC)c(CC)n1 8%
CC(C)c1ccc(Nc2c(-c3ccccc3O)nc3cnccn23)cc1 -11.1%
COC(=O)Nc1nc2ccc(C(=O)c3cccs3)cc2[nH]1 24.2%
COC(=O)c1c(NC(=O)c2ccccc2C(=O)O)sc2c1CCCC2 2.39%
Cc1ccc(-c2cc(C(=O)NCc3ccccc3)c3c(-c4ccc(C)cc4)[nH]nc3n2)cc1 76.2%
COc1ccc(Cn2ccc3nc(C)c(C(=O)Nc4ccc(C)c(F)c4)cc3c2=O)cc1 1.42%
COc1ccccc1NC(=O)c1c(NC(=O)c2ccccc2F)sc2c1CCC2 -8.15%
Cc1ccc(C)c(S(=O)(=O)c2nnn3c2nc(Nc2ccc(F)c(Cl)c2)c2sccc23)c1 -7.53%
Cc1c(Cl)cccc1NC(=O)Cn1nc(C)c2sc3ccccc3c2c1=O 3.49%
COc1ccc(N2CCN(C(=O)c3ccc4c(c3)CCN4S(C)(=O)=O)CC2)cc1 11.8%
CCSc1nc2c(c(=O)[nH]c(=O)n2C)n1CC(O)COc1ccc(Cl)cc1 (configuration not stated) -25.5%
CCc1ccc(OCC(=O)NCc2nc(-c3cccc(C)c3)no2)c(Br)c1 -5.32%
CCCCOC(=O)c1ccc(NC(=O)Cc2coc3ccc(C(C)C)cc23)cc1 -29.5%
Cc1ccc(S(=O)(=O)CCC(=O)N2CCN(c3nc4c(C)c(Cl)ccc4s3)CC2)cc1 -3.3%
Cc1ccc2c(c1)N(C(=O)N1CCC(C(=O)NCc3ccco3)CC1)CC(C)O2 (configuration not stated) 30.5%
COc1ccccc1OCCn1c(-c2ccc(Br)cc2)nc2ccccc2c1=O 0.259%
Cc1cccc(N(CC(=O)NCCSc2ccc(Cl)cc2)S(=O)(=O)c2ccccc2)c1C -2.19%
CCOC(=O)C1CCN(C(=O)Cn2ncc3c([nH]c4ccc(C)cc43)c2=O)CC1 3.66%
CC(=O)N1CCC2(CC1)OC(=O)C(C)=C2C(=O)Nc1ccccc1C(F)(F)F -24.9%

outcome, inactive:
Cc1cccc(N2CCN(c3ccc(C(=O)O)cc3NC(=O)c3ccccc3F)CC2C)c1 (configuration not stated)
Cn1c(=O)n(CCc2ccccc2)c(=O)c2c1nc1n2CCN1c1ccc(Cl)cc1
CC(=O)c1ccc(N2CCN(C(=O)Nc3cccc(F)c3)CC2)cc1
COc1cc(-c2nc3ccc(C)cn3c2Nc2ccc(Cl)cc2)ccc1O
CCn1c(NCc2cccc(Cl)c2)nc2ccccc21
COc1ccc(-n2c(=O)c3ccc(C(=O)NCc4ccc(C)cc4)cc3n(CC(=O)Nc3ccc(C)cc3)c2=O)cc1
Cc1ccc(Cn2c(C(=O)O)c(CNCCc3ccco3)c3ccc(C)cc32)cc1
COCCCNC(=O)C1CCN(c2cc(C)nc3c(-c4ccc(OC)c(OC)c4)c(C)nn23)CC1
O=S(=O)(c1ccc(Br)cc1)c1nnn2c1nc(NCc1cccs1)c1sccc12
O=C(CSc1nc(=O)n(Cc2ccco2)c2c1CCC2)NCc1ccc(F)cc1
CCC(C)NC(=O)c1c(-c2ccccc2)c(-c2ccccc2)nn(C)c1=O (configuration not stated)
COc1ccc(-c2cc(C(=O)Oc3ccc(C)c(C)c3)c3ccccc3n2)cc1
CCOc1ccc(-n2c(SCC(=O)N3CCCCC3)nc3c([nH]c4ccccc43)c2=O)cc1
CS(=O)(=O)N1CCc2cc(C(=O)NCc3ccccc3)ccc21
COc1ccc(N2CCN(C(=O)c3nc(-c4ccc(Cl)cc4)n4c3CCCCC4)CC2)cc1
Cc1cc(N2CCC(C)CC2)nc2ccc(NC(=O)/C=C/c3cccc(Cl)c3)cc12
CCOc1ccc(-c2c(C)nn3c(C)c(C(=O)NCc4ccc(C)o4)cnc23)cc1OCC
Cc1nc(SCC(=O)Nc2ccc(Br)cc2)[nH]c(=O)c1Cc1ccccc1

Potency, active:
COC(=O)[C@]12CCC(C)(C)C[C@@H]1[C@@H]1C(=O)C=C3[C@@]4(C)C=C(C#N)C(=O)C(C)(C)[C@@H]4CC[C@@]3(C)[C@]1(C)CC2 2350 nM
